# The list shows a part of the results.
# B1: Cp ZmpB (Clostridium perfringens), Q0TR08 (protein)
# chain: MNKRKIAAIILATMITNLSATTIDVLAQELNTKNNSKVEVSHDDESHQARVSKFDLYNSDKLDAYNQEFQVSRSNIKSINNNGGKYNSSTIDKAIDGNLETHWETGKPNDANFTNEVVVTFNEITNIDRIVYSARRDSARGKGFAKEFEIYASLKDEGDDFNLVSSGEYTESTRDLVEIKFNPTDFKRLKFKFKKADQNWASAAEFMFYKEDKLNEKFNGLFTDSSMNKVSEEFNTLEKLNAFENELKDHPIYDLYKEGLNNARAILTETSENPTKATLGQITYNLNDDYNNQYRMPYKNIKAIKNNGRHYAAQNIEKAIDNDVNTYWETGTLNSSSFNNEVEVEFNDLVTLDRIVYGSRQSDLKGFAEEVYIYASRTSKGDTYKLVATGAHEATKGLVEAKFEPTEFKRVKFKFKKSKQNSATLNELMFYKPDEVYSSIPKLFTDGTMSELSEEFNSLEKINAFKEKAKNHPLYNDFNETIELAESLISNPRKEDVLELEMRGDSISEAKKRKVWNFQDWQITGLSARAGDKITVYVDVAEGDPTPTLLYKQSLTQHGGATSFQLKPGKNEITIPEINYESNGIPKDVIQGGDLFFTNYKSDSQKRAPKVRIEGASKYPVFILGKSDENEVMKELEAYVEKIKAEPKTTPNIFAVSSNKSLEFVQATYALDWYKKNNKTPKYTAEQWDQYIADAMGFWGFDNSKDVNSDFNFRIMPMVKNLSGGAFMNAGNGVIGIRPGNQDAILAANKGWGVAHELGHNFDTGGRTIVEVTNNMMPLFFESKYKTKTRITDQNIWENNTYPKVGLDDYSNNELYNKADSTHLAQLAPLWQLYLYDNTFYGKFERQFRERDFGNKNREDIYKSWVVAASDAMELDLTEFFARHGIRVDDKVKEDLAKYPKPDKKIYYLNDLAMNYKGDGFTENAKVSVSTSGSNGNIKLSFSVDDENKDNILGYEIRRDGKYVGFTSNDSFVDTKSNLDEDGVYVVTPYDRKLNTLNPIEVNALQPTLSVNPVITLALGEEFNEEEYIVAKDIKGNSLSESVKVKSSNVNTSKVGEYEVLYSLEDSKGNEYTKTSKVNVVSRKEYMSDLTPKQSSNGWGTVRKDKSISGGVIGLTRDGDFVDYNKGLGLHSNAEYVYDLEGKDYDYFESYVGVDKAMSSRPASSVIFKVLVDGEEKFNSGVMRSTTPQKYVKVDVKNAKELKLIVNDAGDGDSSDHASFGDAKLATLSSKPIIKGENLAYSMDEKVDLMKGITATDIEDGNITSKVQIKSSDFVEGKSGIFTVVYSVTDSDGLTSECSRTIAVTDKETQLSDLNWKSATIGSGSVRKDRAVSGNQIRLLNEDNSVETFAKGIGTHSYSEIVYNSEGYDIFDTWVGIDRHVADKKVSSVKFKVYVDGELKAETDVMRIDTPKKRLVVDVRNSKEIKLVVDVADNGNNWDHADWADAKFRNLAEYDASELNKAIEEAKKLDLNNYTEESSEALKNAISKGEEALLSKDKETINSALEELNKEMNSLVKVDLNAVINIPDKYLLKSIQNQLNKTGDITLGDMYSLTTLTLSGVEDLTGLENAKNLETLNMDYNEVKDLRPLSKLKKLNTLNAQEQFIAAGELKPSNGKVIGDSKVYNREGKNVAKTIRVVDKNGNTILEQDAKDEFTINTKDLSSGLYGVHVLFEDEGFSGVMFYLFNV
# Assays:
# Assay in all cases: glycan array binding signal (z-score within array); higher = stronger binding
# Conditions in all cases: glycan notation: IUPAC condensed, linker removed
# [1] = molecular target: Neu5Ac(a2-6)Gal(b1-4)GlcNAc(b1-3)Gal(b1-4)GlcNAc(b1-3)Gal(b1-4)GlcNAc(b1-2)Man(a1-3)[Neu5Ac(a2-6)Gal(b1-4)GlcNAc(b1-3)Gal(b1-4)GlcNAc(b1-3)Gal(b1-4)GlcNAc(b1-2)Man(a1-6)]GalNAc
# Procedure, shortened: (§1)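 The binding signal is a Z-score computed within each array and averaged over linkers. Arrays of the same protein sequence at different concentrations or buffers were also averaged together. Data originate from 3228 arrays in the Consortium for Functional Glycomics database, kept only where the protein sequence was available.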
# [2] = molecular target: Neu5Ac(a2-6)Gal(b1-4)GlcNAc(b1-3)Gal(b1-4)GlcNAc(b1-3)GalNAc
# Procedure, shortened: as §1
# [3] = molecular target: Neu5Ac(a2-6)Gal(b1-4)GlcNAc(b1-3)Gal(b1-4)GlcNAc(b1-3)[Neu5Ac(a2-6)Gal(b1-4)GlcNAc(b1-3)Gal(b1-4)GlcNAc(b1-6)]GalNAc
# Procedure, shortened: as §1
# [4] = molecular target: Neu5Ac(a2-6)Gal(b1-4)GlcNAc(b1-3)Gal(b1-4)GlcNAc(b1-6)[Gal(b1-3)]GalNAc
# Procedure, shortened: as §1
# [5] = molecular target: Neu5Ac(a2-6)Gal(b1-4)GlcNAc(b1-3)Gal(b1-4)[Fuc(a1-3)]GlcNAc(b1-3)Gal(b1-4)[Fuc(a1-3)]GlcNAc
# Procedure, shortened: as §1
# [6] = molecular target: Neu5Ac(a2-6)Gal(b1-4)GlcNAc(b1-3)GalNAc
# Procedure, shortened: as §1
# [7] = molecular target: Neu5Ac(a2-6)Gal(b1-4)GlcNAc(b1-3)[Neu5Ac(a2-6)Gal(b1-4)GlcNAc(b1-6)]GalNAc
# Procedure, shortened: as §1
# [8] = molecular target: Neu5Ac(a2-6)Gal(b1-4)GlcNAc(b1-6)GalNAc
# Procedure, shortened: as §1
# [9] = molecular target: Neu5Ac(a2-6)Gal(b1-4)GlcNAc(b1-6)[Gal(b1-3)GlcNAc(b1-3)]Gal(b1-4)Glc
# Procedure, shortened: as §1
# [10] = molecular target: Neu5Ac(a2-6)Gal(b1-4)GlcNAc(b1-6)[Gal(b1-3)]GalNAc
# Procedure, shortened: as §1
# [11] = molecular target: Neu5Ac(a2-6)Gal(b1-4)GlcNAc6S
# Procedure, shortened: as §1
# [12] = molecular target: Neu5Ac(a2-6)GalNAc
# Procedure, shortened: as §1
# [13] = molecular target: Neu5Ac(a2-6)GalNAc(b1-4)GlcNAc
# Procedure, shortened: as §1
# [14] = molecular target: Neu5Ac(a2-6)GalNAc(b1-4)GlcNAc6S
# Procedure, shortened: as §1
# [15] = molecular target: Neu5Ac(a2-6)GlcNAc(b1-4)GlcNAc
# Procedure, shortened: as §1
# [16] = molecular target: Neu5Ac(a2-6)GlcNAc(b1-4)GlcNAc(b1-4)GlcNAc
# Procedure, shortened: as §1
# [17] = molecular target: Neu5Ac(a2-8)Neu5Ac
# Procedure, shortened: as §1
# [18] = molecular target: Neu5Ac(a2-8)Neu5Ac(a2-3)Gal(b1-3)GalNAc(b1-4)[Neu5Ac(a2-3)]Gal(b1-4)Glc
# Procedure, shortened: as §1
# [19] = molecular target: Neu5Ac(a2-8)Neu5Ac(a2-3)Gal(b1-3)GalNAc(b1-4)[Neu5Ac(a2-8)Neu5Ac(a2-3)]Gal(b1-4)Glc
# Procedure, shortened: as §1
# [20] = molecular target: Neu5Ac(a2-8)Neu5Ac(a2-3)Gal(b1-4)Glc
# Procedure, shortened: as §1
# [21] = molecular target: Neu5Ac(a2-8)Neu5Ac(a2-3)Gal(b1-4)GlcNAc
# Procedure, shortened: as §1
# [22] = molecular target: Neu5Ac(a2-8)Neu5Ac(a2-3)[Gal(b1-3)GalNAc(b1-4)]Gal(b1-4)Glc
# Procedure, shortened: as §1
# [23] = molecular target: Neu5Ac(a2-8)Neu5Ac(a2-3)[GalNAc(b1-4)]Gal(b1-4)Glc
# Procedure, shortened: as §1
# [24] = molecular target: Neu5Ac(a2-8)Neu5Ac(a2-8)Neu5Ac
# Procedure, shortened: as §1
# [25] = molecular target: Neu5Ac(a2-8)Neu5Ac(a2-8)Neu5Ac(a2-3)Gal(b1-4)Glc
# Procedure, shortened: as §1
# [26] = molecular target: Neu5Ac(a2-8)Neu5Ac(a2-8)Neu5Ac(a2-3)[Gal(b1-3)GalNAc(b1-4)]Gal(b1-4)Glc
# Procedure, shortened: as §1
# [27] = molecular target: Neu5Ac(a2-8)Neu5Ac(a2-8)Neu5Ac(a2-3)[GalNAc(b1-4)]Gal(b1-4)Glc
# Procedure, shortened: as §1
# [28] = molecular target: Neu5Ac(a2-8)Neu5Ac(a2-8)Neu5Ac(a2-8)Neu5Ac(a2-3)[GalNAc(b1-4)]Gal(b1-4)Glc
# Procedure, shortened: as §1
# [29] = molecular target: Neu5Ac(a2-8)Neu5Gc(a2-3)Gal(b1-4)GlcNAc
# Procedure, shortened: as §1
# [30] = molecular target: Neu5Ac(b2-6)Gal(b1-4)GlcNAc
# Procedure, shortened: as §1
# [31] = molecular target: Neu5Ac(b2-6)GalNAc
# Procedure, shortened: as §1
# [32] = molecular target: Neu5Ac9Ac(a2-3)Gal(b1-3)GlcNAc
# Procedure, shortened: as §1
# [33] = molecular target: Neu5Ac9Ac(a2-3)Gal(b1-4)GlcNAc
# Procedure, shortened: as §1
# [34] = molecular target: Neu5Ac9Ac(a2-6)Gal(b1-4)GlcNAc
# Procedure, shortened: as §1
# [35] = molecular target: Neu5Gc(a2-3)Gal(b1-3)GlcNAc
# Procedure, shortened: as §1
# [36] = molecular target: Neu5Gc(a2-3)Gal(b1-3)[Fuc(a1-4)]GlcNAc
# Procedure, shortened: as §1
# [37] = molecular target: Neu5Gc(a2-3)Gal(b1-4)Glc
# Procedure, shortened: as §1
# [38] = molecular target: Neu5Gc(a2-3)Gal(b1-4)GlcNAc
# Procedure, shortened: as §1
# [39] = molecular target: Neu5Gc(a2-3)Gal(b1-4)GlcNAc(b1-3)Gal(b1-4)GlcNAc(b1-2)Man(a1-3)[Neu5Gc(a2-3)Gal(b1-4)GlcNAc(b1-3)Gal(b1-4)GlcNAc(b1-2)Man(a1-6)]Man(b1-4)GlcNAc(b1-4)GlcNAc
# Procedure, shortened: as §1
# [40] = molecular target: Neu5Gc(a2-3)Gal(b1-4)[Fuc(a1-3)]GlcNAc
# Procedure, shortened: as §1
# [41] = molecular target: Neu5Gc(a2-6)Gal(b1-4)GlcNAc
# Procedure, shortened: as §1
# [42] = molecular target: Neu5Gc(a2-6)GalNAc
# Procedure, shortened: as §1
# [43] = molecular target: Neu5Gc(a2-8)Neu5Ac(a2-3)Gal(b1-4)GlcNAc
# Procedure, shortened: as §1
# [44] = molecular target: Neu5Gc(a2-8)Neu5Gc(a2-3)Gal(b1-4)GlcNAc
# Procedure, shortened: as §1
# [45] = molecular target: Neu5Gc(a2-8)Neu5Gc(a2-3)Gal(b1-4)GlcNAc(b1-3)Gal(b1-4)GlcNAc
# Procedure, shortened: as §1
binder,measurement,setting,value
B1,glycan array binding signal (z-score),[1],-0.333
same,glycan array binding signal (z-score),[2],-0.303
same,glycan array binding signal (z-score),[3],0.602
same,glycan array binding signal (z-score),[4],-0.162
same,glycan array binding signal (z-score),[5],0.019
same,glycan array binding signal (z-score),[6],-0.399
same,glycan array binding signal (z-score),[7],0.229
same,glycan array binding signal (z-score),[8],0.452
same,glycan array binding signal (z-score),[9],-0.011
same,glycan array binding signal (z-score),[10],-0.377
same,glycan array binding signal (z-score),[11],0.289
same,glycan array binding signal (z-score),[12],-0.196
same,glycan array binding signal (z-score),[13],-0.135
same,glycan array binding signal (z-score),[14],0.627
same,glycan array binding signal (z-score),[15],-0.201
same,glycan array binding signal (z-score),[16],0.044
same,glycan array binding signal (z-score),[17],-0.333
same,glycan array binding signal (z-score),[18],-0.251
same,glycan array binding signal (z-score),[19],0.11
same,glycan array binding signal (z-score),[20],-0.182
same,glycan array binding signal (z-score),[21],-0.423
same,glycan array binding signal (z-score),[22],0.001
same,glycan array binding signal (z-score),[23],-0.396
same,glycan array binding signal (z-score),[24],-0.002
same,glycan array binding signal (z-score),[25],0.463
same,glycan array binding signal (z-score),[26],-0.346
same,glycan array binding signal (z-score),[27],0.629
same,glycan array binding signal (z-score),[28],-0.114
same,glycan array binding signal (z-score),[29],0.118
same,glycan array binding signal (z-score),[30],-0.41
same,glycan array binding signal (z-score),[31],-0.216
same,glycan array binding signal (z-score),[32],-0.424
same,glycan array binding signal (z-score),[33],1.71
same,glycan array binding signal (z-score),[34],-0.353
same,glycan array binding signal (z-score),[35],-0.326
same,glycan array binding signal (z-score),[36],0.043
same,glycan array binding signal (z-score),[37],-0.044
same,glycan array binding signal (z-score),[38],-0.31
same,glycan array binding signal (z-score),[39],-0.288
same,glycan array binding signal (z-score),[40],2.05
same,glycan array binding signal (z-score),[41],-0.374
same,glycan array binding signal (z-score),[42],-0.123
same,glycan array binding signal (z-score),[43],-0.265
same,glycan array binding signal (z-score),[44],-0.299
same,glycan array binding signal (z-score),[45],-0.067

# Source: the supplement of paper PMC8728848
